Results on 83 variants are retold here after the RNAGym collection of RNA variant scans (doi:10.1073/pnas.2313332121).

B1: TPR 5TU (parent)
chain: GGAUCUUCUCGAUCUAACAAAAAAGACAAAUCUGCCACAAAGCUUGAGAGCAUCUUCGGAUGCAGAGGCGGCAGCCUUCGGUGGCGCGAUAGCGCCAACGUUCUCAACUAUGACACGCAAAACGCGUGCUCCGUUGAAUGGAGUUUAUCAUG

This sample is rich in variants without activity.

In the data set the parent is B1. Briefly: polymerase ribozyme fitness, log enrichment relative to wild type (log ratio); higher = more active; in vitro selection for triplet polymerase activity. Summed up: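 For each subunit of a heterodimeric triplet polymerase ribozyme, a mutant library was built by PCR and transcribed, then taken through a single in vitro selection round in triplicate. Selection involved annealing to a biotinylated primer, the partner subunit and triplets, incubation frozen at −7 °C, gel excision of extended constructs, capture on streptavidin beads and RT-PCR. Genotypes were retained after Illumina sequencing of inputs and outputs only with ≥10 input reads and ≥1 read in each output. Fitness is defined as the logarithm of a genotype's enrichment relative to wild-type enrichment, using inverse-variance-weighted averages across replicates, with the logarithm taken to base 2.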
On to U44A U56A C85G A91C, for which the “polymerase ribozyme fitness (log ratio)” value is at most -4.2.

With U45A G83U C85G C95U, the “polymerase ribozyme fitness (log ratio)” value was at most -4.2. With G46A C76A C96U G141C the figure was at most -4.2; with U44A G48A A52C G140A, at most -4.2; with U45C A47G A49U C79G U90A C95G, at most -4.2. With U45A G48C G59U G62U G84A A91U A97U C108U C114A G136C the figure was at most -4.2; with U44A C96G C149U, at most -4.2. With U44G U134C the figure was -4.1; with U45A G50U G83U C87U C103U C105A, at most -4.2; with A47C A89G C118A G133U, at most -4.2. Regarding A47C A60G C85A, the “polymerase ribozyme fitness (log ratio)” value was -2.83. With U45G A66C C76G A91G the figure was at most -4.2. For U45A A47C G58A C85U C95U C123A, the “polymerase ribozyme fitness (log ratio)” value was at most -4.2. On to A47G G81C C87A G88A G140U, for which the “polymerase ribozyme fitness (log ratio)” value was at most -4.2. The figure for U44A C87U G126A U130G is at most -4.2. With G46A A97C C103G C123A G141C A147C C149A the figure was at most -4.2; with G46C C114U, -3.67.

Turning to G46U G74U A91U U146G C149A, the “polymerase ribozyme fitness (log ratio)” value was at most -4.2. Consider U44A C76A A106G C118U, for which the “polymerase ribozyme fitness (log ratio)” value is at most -4.2. With A47G G80U U90G C99G G117U A138C, the “polymerase ribozyme fitness (log ratio)” value was at most -4.2. The figure for U44A G58A C85U A120C is at most -4.2; for U45A A52C C57A it is at most -4.2; for U45A G50A U55A G68U C85G C118A U135G it is at most -4.2. With U45C G70C A91G C99U G136C the figure was at most -4.2; with A47C G84A C96U C108U U109G A147U, at most -4.2; with U45G G59C C99A U151G, at most -4.2. The figure for A47C C57U C76G G124A G152U is at most -4.2. For the variant A47C A49C G62U A64U C96U A138U, the “polymerase ribozyme fitness (log ratio)” value is at most -4.2.

As for U45A A60C C93A, the “polymerase ribozyme fitness (log ratio)” value is at most -4.2.

In the case of A47U A64U, the “polymerase ribozyme fitness (log ratio)” value is at most -4.2. The figure for U44G C75U A89G is at most -4.2; for U45A C93U A147U it is -2.81; for U44A C69A A91C G143C it is at most -4.2.

Regarding U45G A73U G83U G126C U134G, the “polymerase ribozyme fitness (log ratio)” value is at most -4.2. With U44A G65C C99U C131A U145C U151C the figure was at most -4.2. With A47C G50C C75A G84C C85G A119G U127G the figure was at most -4.2. The figure for U44A G65C G68A G88A G100U C105G is at most -4.2; for G46U U56A it is -0.107; for G46A G67C U109G it is at most -4.2. With G46A G74U C76A G80A, the “polymerase ribozyme fitness (log ratio)” value is at most -4.2.

A47C G83U C103A C118A G133A G136A: the “polymerase ribozyme fitness (log ratio)” value is at most -4.2. With G46A G59A A60U G88A A138C the figure was at most -4.2; with U44A C95U C99G, at most -4.2; with A47C C93U A106U A107G, at most -4.2.

Consider U45G G92A G152A, for which the “polymerase ribozyme fitness (log ratio)” value is at most -4.2. With G46C C99G U101G C105G G124A the figure was -2.54. With G46A G58U G81A G92A C99U the figure was at most -4.2.

For the variant G46U G84A G86A C125U, the “polymerase ribozyme fitness (log ratio)” value is at most -4.2. The figure for U44A G50C C85G G136A is at most -4.2. The figure for G46A U82A G88C U90G is at most -4.2; for U45A A52G U82G A115G G136U G141A U151G it is at most -4.2; for U44A C75A U101G it is at most -4.2.

With U45C C51G C63G A66U G68U A91G G100U C108G C116U, the “polymerase ribozyme fitness (log ratio)” value is at most -4.2. As for U45A G58A G59C A60G G133A, the “polymerase ribozyme fitness (log ratio)” value is at most -4.2.

Take G46A C69A A91C C118U U134C U139A: the “polymerase ribozyme fitness (log ratio)” value is at most -4.2.

For the variant U45G U53A C75A C93A A113G, the “polymerase ribozyme fitness (log ratio)” value is at most -4.2.

As for U44G A52C U77C G83A C99A C118A U145G, the “polymerase ribozyme fitness (log ratio)” value was at most -4.2. With U44G A60U C99G U111G G141C the figure was at most -4.2; with U45G G86U C99A A119U A137C, at most -4.2. The figure for U45A A121G C131G G140U is at most -4.2. Regarding U44A G50C U53A C87A A106G A107U, the “polymerase ribozyme fitness (log ratio)” value is at most -4.2. The figure for A47C G141A is -1.5. The figure for U44G G84A G86C C123U G152U is at most -4.2; for A47G U56A U90C G92U U139C it is at most -4.2; for U44A C103G it is at most -4.2. The figure for A47C G65U A98U C131G is at most -4.2. For G46C A49U C72U C116U, the “polymerase ribozyme fitness (log ratio)” value was at most -4.2. With A47C C63G A91U C96A A106C C129G G136C the figure was at most -4.2. With U44A U53A G62A A138G, the “polymerase ribozyme fitness (log ratio)” value is at most -4.2. With U45G A52G U82C U101G C131U the figure was -3.32; with U45A G71A G94C, at most -4.2; with U45A G46A U55C A66G U77G U82A C103G U135C U145C, at most -4.2. With U45A G59C G70C C87U the figure was at most -4.2; with U45G A49C C85A, at most -4.2; with A47C G74U A107G A122U, at most -4.2. The figure for U45A A49C C51G G74U G81A G133A is at most -4.2. Consider A47C U53A A64U A147G, for which the “polymerase ribozyme fitness (log ratio)” value is at most -4.2. The figure for A47G A52C A97U is -1.2; for U44A C75G U104C A119U A122U C149A it is at most -4.2; for U45A A47C U56C A107U U146C it is at most -4.2. The figure for U45C A49C G70C G83C A137C U144C is at most -4.2; for U44A G67C C76A G94U U148A it is at most -4.2; for A47G U77A G86C G126C it is at most -4.2.
